Laboratory results reported in a collection of fitness landscapes (doi:10.1126/science.1257360).
Some of the results follow.

B1: PhoQ; a variant is named by its letters at X, in order, P23837 (parent)
chain: MKKLLRLFFPLSLRVRFLLATAAVVLVLSLAYGMVALIGYSVSFDKTTFRLLRGESNLFYTLAKWENNKLHVELPENIDKQSPTMTLIYDENGQLLWAQRDVPWLMKMIQPDWLKSNGFHEIEADVNDTSLLLSGDHSIQQQLQEVREDDDDAEMTHSVAVNVYPATSRMPKLTIVVVDTIPVELKSSYMVWSWFIYVLSANLLLVIPLLWVAAWWSLRPIEALAKEVRELEEHNRELLNPATTRELTSLVRNLNRLLKSERERYDKYRTTLTDLTHSLKTPLXXLQXXLRSLRSEKMSVSDAEPVMLEQISRISQQIGYYLHRASMRGGTLLSRELHPVAPLLDNLTSALNKVYQRKGVNISLDISPEISFVGEQNDFVEVMGNVLDNACKYCLEFVEISARQTDEHLYIVVEDDGPGIPLSKREVIFDRGQRVDTLRPGQGVGLAVAREITEQYEGKIVAGESMLGGARMEVIFGRQHSAPKDE

Variants of: B1
Test: enrichment ratio after two sorts for PhoP signalling (ratio (wild type AVST 3.29)); higher = more functional
Settings: with PhoP (E. coli)

Row | Variant | enrichment ratio
1 | TESG | 24.9
2 | WFMN | ≤ 0.25
3 | AIGT | ≤ 0.25
4 | FEKF | ≤ 0.25
5 | YPCV | ≤ 0.25
6 | QACI | ≤ 0.25
7 | SGFE | ≤ 0.25
8 | ATPQ | ≤ 0.25
9 | TFGN | ≤ 0.25
10 | ECVH | ≤ 0.25
11 | EAHW | 1.32
12 | REHP | ≤ 0.25
13 | KHLY | ≤ 0.25
14 | THMK | ≤ 0.25
15 | TEYN | 3.14
16 | GFGC | ≤ 0.25
17 | VTIR | ≤ 0.25
18 | NCMS | ≤ 0.25
19 | QEAD | ≤ 0.25
20 | FWHY | ≤ 0.25
21 | HRIV | ≤ 0.25

Row | Variant | enrichment ratio
22 | SMHR | ≤ 0.25
23 | MQVT | 4.23
24 | RFWP | 0.407
25 | MDRS | ≤ 0.25
26 | WENN | ≤ 0.25
27 | KADD | ≤ 0.25
28 | IVCP | ≤ 0.25
29 | RTWA | ≤ 0.25
30 | LGQD | ≤ 0.25
31 | EHYI | ≤ 0.25
32 | KAAF | ≤ 0.25
33 | VSDA | ≤ 0.25
34 | HNWY | ≤ 0.25
35 | YYNV | ≤ 0.25
36 | MGAM | 14.1
37 | EQCG | ≤ 0.25
38 | SQGC | 1.76
39 | CTDF | ≤ 0.25
40 | VIIP | ≤ 0.25
41 | YHHK | ≤ 0.25
42 | MLFK | ≤ 0.25

Row | Variant | enrichment ratio
43 | HGLR | ≤ 0.25
44 | ALQL | 8.94
45 | DRFE | ≤ 0.25
46 | NNVF | ≤ 0.25
47 | HIRK | ≤ 0.25
48 | TVVH | ≤ 0.25
49 | LIGW | ≤ 0.25
50 | GRWY | ≤ 0.25
51 | LKSD | ≤ 0.25
52 | ITKC | ≤ 0.25
53 | SRMY | ≤ 0.25
54 | PIVC | ≤ 0.25
55 | IVHW | ≤ 0.25
56 | KPAE | ≤ 0.25
57 | AMGV | ≤ 0.25
58 | YMEL | ≤ 0.25
59 | WYFC | ≤ 0.25
60 | GHTW | ≤ 0.25
61 | CFHY | ≤ 0.25
62 | SGFQ | 2.13
63 | SKLV | 12

Row | Variant | enrichment ratio
64 | EWTR | ≤ 0.25
65 | SIFD | ≤ 0.25
66 | MKSC | ≤ 0.25
67 | MISC | 23
68 | TNVY | ≤ 0.25
69 | GRSP | ≤ 0.25
70 | AAII | 12.4
71 | GYCG | ≤ 0.25
72 | TAKG | ≤ 0.25
73 | GSKP | ≤ 0.25
74 | DKMP | ≤ 0.25
75 | QNSQ | 2.33
76 | DYDF | ≤ 0.25
77 | NKTF | ≤ 0.25
78 | YKLM | 1.97
79 | KRLF | ≤ 0.25
80 | METP | ≤ 0.25
81 | GTAA | ≤ 0.25
82 | VALF | 2.09
83 | STEV | ≤ 0.25
84 | SAAI | 7.86
